In PubChem BioAssay AID652104 (National Center for Advancing Translational Sciences (NCATS), 2013):
Screen size: about 410,000 compounds; about 7,200 (1.8%) were called active. Inconclusive results, whose numbers are uncertain, are shown with a selection of clear calls. The call rests on the fitted dose curve; in most records, active means well fitted activation curve with a large enough effect; inconclusive means small, poorly fitted or top-dose-only effect, or another doubt; inactive means no such curve, though single readings can be large or run the other way. Potencies of inconclusive entries are left out as doubtful fits.
Potency means the concentration at half of the fitted maximal effect; tags describe the fitted curve by direction and shape.

Test: qHTS of TDP-43 Inhibitors; further: nearly all actives have a fitted effect of over 50% in size; on growth rescue (activation): % of control where 0% means no effect
Conditions: TDP-43 expressing yeast growth rescue, BacTiter-Glo, 24 h; growth rescue (activation): at 46.1 µM (top of the series) unless noted
Outline: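 Luminescence from BacTiter-Glo reports growth of TDP-43-expressing yeast after 24 hr at 30 deg C with compound. Cells were raffinose-pregrown to mid-log, then seeded in galactose medium at OD600=0.02.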
For `COc1ccccc1/C=C/C(=O)OCC(=O)N1c2ccccc2CC1C` (stereo not drawn), the Potency was inconclusive [activator, partial curve].
With `COc1ccc(C)cc1Nc1n[n+](-c2ccccc2)c(-c2cccc(Cl)c2Cl)s1` the Potency was active: 35.5 µM.
With `c1csc(-c2nn3c(C4CCCCC4)nnc3s2)c1` the Potency was inconclusive [activator, single point].
For `COc1cc(CCCN2C(=O)C(=O)NC[C@@H]2C(C)O)cc(OC)c1OC` (stereo partly drawn), the Potency was inconclusive [activator, partial curve].
With `CCCn1c(S(=O)(=O)O)nc2ccccc21` the “growth rescue (activation)” value was inactive: -0.334%.
For `O=C(Nc1ccccc1Cl)c1csc(-c2cccnc2)n1`, the Potency was inconclusive [activator, partial curve].
For `O=C(NCc1ccc(Cl)cc1)c1csc(-c2cccnc2)n1`, the Potency was active: 15.8 µM.
For `CC(=O)c1ccc(OCC(=O)Nc2ccc3nc(C)sc3c2)cc1`, the Potency was inconclusive [activator, full curve, poor fit].
In the case of `CCCOc1ccccc1C1NC(=O)NC(C)=C1C(=O)OCc1ccccc1` (stereo not drawn), the “growth rescue (activation)” value is reported as inactive: -12.2%.
In the case of `O=C(NCC(c1ccco1)N1CCc2ccccc21)c1ccccc1Cl` (stereo not drawn), the Potency is reported as inconclusive [activator, single point].
In the case of `O=C(CCc1ccccc1)NC(=S)NCc1ccco1`, the Potency is reported as inconclusive [activator, partial curve].
For `COc1ccc(N=Cc2nc(-c3ccco3)oc2O)cc1`, the Potency was active: 7.08 µM.
In the case of `O=C(c1cc2c(s1)-c1ccccc1OC2)N1CCN(c2ccccn2)CC1`, the “growth rescue (activation)” value is reported as inactive: 17.4%.
With `CCn1c(=O)c2cc(C(=O)N(CCCOC(C)C)Cc3ccco3)sc2c2ccccc21` the Potency was inconclusive [activator, single point].
In the case of `O=C(COC(=O)c1cccs1)Nc1cccc(Cl)c1`, the Potency is reported as inconclusive [activator, full curve, poor fit].
With `O=C(NC(=S)Nc1ccccc1N1CCCCC1)c1ccc(F)cc1` the Potency was inconclusive [activator, single point].
For `Cc1ccc2nc(-c3ccc(NC(=O)COC(=O)c4ccc([N+](=O)[O-])o4)cc3)sc2c1`, the “growth rescue (activation)” value was inactive: 15.3%.
In the case of `O=C(c1ccccc1)c1coc2c1C(=O)c1ccccc1C2=O`, the Potency is reported as inconclusive [activator, partial curve].
In the case of `CS(=O)(=O)c1nc2ccccc2n1Cc1ccccc1`, the “growth rescue (activation)” value is reported as inactive: 14%.
For `c1ccc2c(c1)OCCc1c-2[nH]c2ccccc12`, the Potency was active: 12.6 µM.
With `CC(C)(O)c1cc2ccc(C#Cc3ccsc3)cc2c(=O)o1` the Potency was active: 25.1 µM.
For `COc1ccc(N/N=C(/C(N)=O)C2=NC(C)(C)Cc3ccccc32)cc1`, the Potency was inconclusive [activator, partial curve].
With `C=CC[n+]1c(-c2ccc(C)cc2)csc1NNC(=O)Nc1ccccc1` the Potency was inconclusive [activator, single point].
In the case of `O=C(c1ccc(F)cc1)C(CN1CCOCC1)c1ccccc1` (stereo not drawn), the Potency is reported as active: 17.8 µM.
In the case of `COc1ccc(-c2cn3cccnc3n2)cc1NC(=O)c1c(F)cccc1F`, the “growth rescue (activation)” value is reported as inactive: 13.3%.
In the case of `CC(=O)NC(c1ccc(F)c(F)c1)c1nc(-c2ccc3c(c2)OCO3)cs1` (stereo not drawn), the “growth rescue (activation)” value is reported as inactive: 13.1%.
With `O=C(NCC1CCCO1)c1ccc(CNS(=O)(=O)c2ccc(F)c(Cl)c2)cc1` (stereo not drawn) the “growth rescue (activation)” value was inactive: -5.29%.
In the case of `Cc1ccc(N2CC(c3nnc(NC(=O)c4ccco4)s3)CC2=O)cc1Cl` (stereo not drawn), the growth rescue (activation) is reported as inactive: 17% [at 9.22 µM].
For `Cc1cc(C)c2c(=O)n(-c3ccccc3)[nH]c2n1`, the “growth rescue (activation)” value was inactive: 7.84%.
For `COc1ccc(Cl)cc1NC(=O)c1cc(S(=O)(=O)N2CCC(C)CC2)cn1C`, the Potency was inconclusive [activator, full curve, poor fit].
In the case of `CCc1nc2cccnc2n1-c1ccc(CC(=O)Nc2ccccc2Cl)cc1`, the “growth rescue (activation)” value is reported as inactive: 19.9%.
With `CCOc1ccc(CNC(=O)CCC(=O)N2CC3CCCN3c3ccccc32)cc1` (stereo not drawn) the “growth rescue (activation)” value was inactive: 24%.
In the case of `Cc1cccc(C)c1N1CCN(C(=O)Nc2ccc3c(c2)OCCO3)CC1`, the Potency is reported as inconclusive [activator, single point].
In the case of `O=C(c1ccccc1)c1ccc(N2CCOCC2)c(NC(=O)c2ccco2)c1`, the Potency is reported as inconclusive [activator, single point].
With `Cc1ccc(-c2ccc(/C=C(\C#N)C(N)=S)n2C)cc1` the “growth rescue (activation)” value was inactive: 0%.
With `CCCc1cc(=O)[nH]c(SCCOc2ccc(OCC)cc2)n1` the Potency was inconclusive [activator, partial curve].
For `CCc1sc(C(=O)NCc2ccco2)cc1Br`, the Potency was active: 15.8 µM.
For `O=C(COC(=O)CCSc1ccc(Cl)cc1)NCc1ccccc1Cl`, the Potency was inconclusive [activator, partial curve].
For `S=C1SCN(Cc2cccs2)CN1Cc1cccs1`, the Potency was active: 11.2 µM.
For `COc1ccc(NC(=S)c2ccc3ccccc3n2)cc1`, the Potency was inconclusive [activator, single point].
In the case of `CCOC(=O)Cn1c(=O)oc2cc(S(=O)(=O)Nc3ccc(F)cc3)ccc21`, the Potency is reported as inconclusive [activator, partial curve].
For `CCOc1ccc(NC(=O)c2cc(=O)c3cc(CC)ccc3o2)cc1`, the Potency was inconclusive [activator, single point].
In the case of `Cc1ccc(C)c(-c2csc(N)c2C(=O)OC(C)C)c1`, the Potency is reported as inconclusive [activator, partial curve].
In the case of `FC(F)(F)c1cccc(Cc2noc(CN3CCSCC3)n2)c1`, the Potency is reported as inconclusive [activator, partial curve].
With `O=[N+]([O-])c1ccc(S(=O)(=O)Nc2ccncc2)cc1` the “growth rescue (activation)” value was inactive: 15.1%.
With `Cc1ccc(NC(=O)c2c(C)oc3ncn(C)c(=O)c23)cc1F` the Potency was inconclusive [activator, partial curve].
With `CC1=C(C(=O)N2CCOCC2)CC(CC(=O)NC2CCCCC2)C(=O)N1CCCN1CCCC1=O` (stereo not drawn) the Potency was inconclusive [activator, partial curve, poor fit].
With `CC(C)(C)c1ccc(C(=O)NCCC(=O)Nc2cc(Cl)ccc2N2CCOCC2)cc1` the Potency was inconclusive [activator, partial curve].
With `O=C(NCc1ccccc1Cl)c1ccc2c(c1)nnn2C1CCCC1` the Potency was inconclusive [activator, single point].
In the case of `O=C(CC1SC(=O)N(c2ccccc2)C1=O)Nc1ccc(Br)cc1` (stereo not drawn), the Potency is reported as inconclusive [activator, partial curve].
For `O=C(ONC1=NCCCCC1)c1cccc([N+](=O)[O-])c1`, the growth rescue (activation) was inconclusive: -65.7% [activator].
For `Cc1cccc(/C(N)=N/OC(=O)c2cccs2)c1`, the growth rescue (activation) was inconclusive: -90.1% [activator].
For `CCc1ccccc1NC(=O)Cn1nnc(-c2nc(-c3ccncc3)no2)c1N`, the Potency was inconclusive [activator, partial curve, poor fit].
For `Fc1ccc(COc2cccc(-c3n[nH]c(=S)o3)c2)cc1`, the Potency was inconclusive [activator, partial curve].
For `CC(C)[C@H](NC(=O)c1ccccc1)C(=O)OCC(=O)c1ccc2c(c1)NC(=O)CO2`, the Potency was inconclusive [activator, single point].
In the case of `c1coc(-c2nnc3sc(-c4cccs4)nn23)c1`, the Potency is reported as inconclusive [activator, partial curve].
With `CN(C)CCn1cnc2c1c(=O)n(C)c(=O)n2C` the “growth rescue (activation)” value was inactive: -12.6%.
With `Cc1ccc(C)c(NC(=O)C(OC(=O)c2cnc(C)cn2)c2ccccc2)c1` (stereo not drawn) the “growth rescue (activation)” value was inactive: 22.8%.
In the case of `S=c1[nH]nc(-c2cccc(Br)c2)o1`, the “growth rescue (activation)” value is reported as inactive: -41.9%.
In the case of `O=C(Cn1cnc2ccccc2c1=O)NNC(=O)c1ccccc1F`, the Potency is reported as inconclusive [activator, partial curve].
In the case of `COc1ccccc1C(=O)n1nc(-c2cccnc2)nc1NCc1ccccc1`, the Potency is reported as inconclusive [activator, partial curve].
In the case of `CC(=O)c1c(C)[nH]c(C(=O)OCC(=O)Nc2ccccc2Cl)c1C`, the Potency is reported as inconclusive [activator, partial curve].
With `O=C(CCCc1ccccc1)NC1CC(=O)N(c2ccc(Cl)cc2)C1` (stereo not drawn) the Potency was inconclusive [activator, single point].
With `COc1ccccc1Nc1nc(N)nc(CSC(=S)N2CC(C)CC(C)C2)n1` (stereo not drawn) the Potency was active: 25.1 µM.
With `CCc1ccc(NC(=O)CSc2nc(=O)n(CCCN3CCOCC3)c3c2CCCC3)cc1` the Potency was inconclusive [activator, full curve, poor fit].
With `COCCNc1nc(C)cc(-c2cc(-c3ccc(Cl)cc3)on2)n1` the Potency was inconclusive [activator, partial curve].
With `O=[N+]([O-])c1cccc(C(=S)N2CCN(c3ccccc3)CC2)c1` the Potency was active: 12.6 µM.
With `O=C(COc1ccccc1C(=O)O)Nc1ccc(SC(F)F)cc1` the growth rescue (activation) was inactive: -15.2% [at 0.397 µM].
For `CSCC(=O)Nc1nc(-c2ccc3c(c2)OCCO3)cs1`, the Potency was inconclusive [activator, partial curve].
For `COc1cc2c(cc1OC)C(COc1ccc3c(C)cc(=O)oc3c1)N(C(=O)c1cccc(OC)c1OC)CC2` (stereo not drawn), the “growth rescue (activation)” value was inactive: 10.1%.
With `CC(=O)c1ccc(OCC(=O)N2CCN(S(=O)(=O)c3ccc(C)cc3C)CC2)cc1` the Potency was inconclusive [activator, partial curve].
With `COc1ccccc1NC(=O)COC(=O)Cc1c[nH]c2ccccc12` the Potency was inconclusive [activator, partial curve].
For `Cc1nc2cc(C(=O)OCC(=O)NC34CC5CC(CC(C5)C3)C4)ccc2n1-c1ccccc1`, the Potency was inconclusive [activator, single point].
